Reference: article PMC5960634 (Biochemical pharmacology, 2018)
Structures can show the parent of a compound that is named as a salt.

Tested on: CYP2A6 and CYP2B6 mRNA in human astrocytes and HepaRG cells
Settings: ERα silenced by siRNA

Compound	induction of CYP2A6 and CYP2B6 mRNA expression after ERα siRNA knockdown
Cl.N[C@@]1(c2ccccc2Cl)CCC[C@@H](O)C1=O [(2R,6R)-HNK]	failed to induce
Cl.N[C@]1(c2ccccc2Cl)CCC[C@H](O)C1=O [(2S,6S)-HNK]	failed to induce
CNC1(c2ccccc2Cl)CCCCC1=O (stereo not drawn) [ketamine, Ketamine hydrochloride]	lost
